Assay results from the supplement of paper PMC7826260.
The other results are listed elsewhere or left out. The data describe in vitro nicking of single-stranded DNA by Rep domains for 1 h at 37 °C with 3 µM enzyme; only the middle of the 90-letter strands is printed. Values are log2 of uncut reads against the no-enzyme pool; strong cutting gives strongly negative numbers. There is no active / inactive call. Reads are scaled to the total; uncut strands gain when others are lost, and binding without cutting may add a little.

Experiments:
Assay in all cases: uncleaved DNA left, log2 of reads against the no-enzyme library (log2 ratio); higher = less cleavage (more negative = more Rep cleavage of the k-mer); sequences stand for … in CTCGTCCG…ACCGGAGA
[1] = tested on: T1, Rep nickase domain of Muscovy duck circovirus
T1 sequence (protein, residues 1-111, tag omitted): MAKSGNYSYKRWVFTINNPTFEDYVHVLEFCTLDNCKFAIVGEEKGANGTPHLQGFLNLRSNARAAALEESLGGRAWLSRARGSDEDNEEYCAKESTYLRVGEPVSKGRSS
Method: (§1)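 A pool of 90-nt single-stranded DNAs with seven random bases just before the constant AC of the nick site (name = the seven bases) was cut by 3 µM recombinant His6-SUMO-tagged Rep nickase domain (300 nM DNA, 50 mM HEPES pH 8.0, 50 mM NaCl, 1 mM MnCl2, 1 h, 37 °C, three replicates). Uncut DNA was amplified and sequenced.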

[2] = tested on: T2, Rep nickase domain of banana bunchy top virus
T2 sequence (protein, residues 1-94, tag omitted): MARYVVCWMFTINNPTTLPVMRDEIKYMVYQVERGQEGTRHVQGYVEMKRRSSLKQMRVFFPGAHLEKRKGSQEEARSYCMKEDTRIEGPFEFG
Method: as §1

[3] = tested on: T3, Rep nickase domain of cabbage leaf curl virus
T3 sequence (protein, residues 1-116, tag omitted): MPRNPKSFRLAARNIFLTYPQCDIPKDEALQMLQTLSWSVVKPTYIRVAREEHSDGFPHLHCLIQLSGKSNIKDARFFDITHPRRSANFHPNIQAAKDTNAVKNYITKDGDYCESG
Method: as §1

[4] = tested on: T4, Rep nickase domain of chickpea chlorotic dwarf virus
T4 sequence (protein, residues 1-124, tag omitted): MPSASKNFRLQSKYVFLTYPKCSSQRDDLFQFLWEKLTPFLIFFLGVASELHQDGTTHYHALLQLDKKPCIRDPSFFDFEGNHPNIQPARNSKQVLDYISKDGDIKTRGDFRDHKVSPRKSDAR
Method: as §1

[5] = tested on: T5, Rep nickase domain of faba bean necrotic yellows virus
T5 sequence (protein, residues 1-98, tag omitted): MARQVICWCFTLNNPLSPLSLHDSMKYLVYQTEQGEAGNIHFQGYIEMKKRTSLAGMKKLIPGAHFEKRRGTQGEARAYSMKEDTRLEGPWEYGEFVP
Method: as §1

[6] = tested on: T6, Rep nickase domain of maize striate mosaic virus
T6 sequence (protein, residues 1-117, tag omitted): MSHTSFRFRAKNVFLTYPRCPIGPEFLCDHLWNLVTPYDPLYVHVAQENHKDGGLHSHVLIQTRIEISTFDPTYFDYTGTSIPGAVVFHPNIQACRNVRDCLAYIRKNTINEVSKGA
Method: as §1

[7] = tested on: T7, Rep nickase domain of porcine circovirus 2
T7 sequence (protein, residues 2-116, tag omitted): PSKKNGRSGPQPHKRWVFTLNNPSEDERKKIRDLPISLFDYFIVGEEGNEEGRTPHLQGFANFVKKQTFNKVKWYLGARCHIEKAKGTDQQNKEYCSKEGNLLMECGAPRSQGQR
Method: as §1

[8] = tested on: T8, Rep nickase domain of tomato yellow leaf curl virus
T8 sequence (protein, residues 1-136, tag omitted): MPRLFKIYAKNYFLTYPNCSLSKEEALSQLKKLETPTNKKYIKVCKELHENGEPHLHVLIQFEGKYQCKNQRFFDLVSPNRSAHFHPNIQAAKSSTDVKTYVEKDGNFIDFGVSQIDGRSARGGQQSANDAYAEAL
Method: as §1

[9] = tested on: T9, Rep nickase domain of wheat dwarf virus
T9 sequence (protein, residues 1-137, tag omitted): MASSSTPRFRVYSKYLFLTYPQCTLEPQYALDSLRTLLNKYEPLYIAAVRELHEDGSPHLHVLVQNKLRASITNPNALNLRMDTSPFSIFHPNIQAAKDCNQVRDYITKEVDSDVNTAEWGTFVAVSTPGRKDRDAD
Method: as §1

Sequence	uncleaved DNA left (log2) [1]	uncleaved DNA left (log2) [2]	uncleaved DNA left (log2) [3]	uncleaved DNA left (log2) [4]	uncleaved DNA left (log2) [5]	uncleaved DNA left (log2) [6]	uncleaved DNA left (log2) [7]	uncleaved DNA left (log2) [8]	uncleaved DNA left (log2) [9]
AGAGCTC	0.0842	0.0429	0.255	0.455	0.0607	0.582	-0.0923	0.00902	0.0264
AACGCAT	0.0698	-0.0478	-0.0529	-1.22	-0.0391	-0.0094	-0.0811	-0.0364	-0.0238
GGAGCTT	-0.0218	-0.00159	0.701	1.58	-0.0236	2	0.075	-0.104	0.145
CTTCCCG	-0.254	-0.00205	-1	-0.251	-0.0498	-0.995	-0.983	-0.114	-0.0909
TGATCCT	-0.854	0.0607	0.245	-1.1	-0.0745	0.531	-0.669	0.0743	0.0781
CTCGGTT	0.0205	-0.0345	0.2	-0.67	0.0934	0.395	-0.188	-0.126	-0.0407
CACACAA	0.0554	-0.0392	0.0358	-0.715	0.00939	-0.752	0.183	-0.0503	0.0728
ACTTCGT	-0.0181	-0.0474	-0.809	-0.89	0.0456	-1.14	-0.0529	-0.0213	-0.0136
GAGAGAG	0.0166	0.0477	0.048	0.579	0.0644	-0.287	0.141	0.0939	0.11
AGGGATC	0.0198	-0.0186	0.13	1.27	-0.183	1.42	0.0256	-0.0332	0.0541
GTGTCAT	0.0121	0.0407	0.539	1.41	-0.122	2.05	0.0933	0.0588	0.17
GAAAAGC	0.0759	0.0181	0.0253	0.333	0.00131	-0.452	0.142	-0.0181	0.063
CTCTCGC	-0.316	-0.0468	-0.741	-0.81	-0.192	-1.05	-0.122	-0.236	-0.0352
TTAGGGA	0.0256	0.0568	0.366	0.844	0.0706	0.801	0.0834	0.0291	0.0088
CACATGG	-0.0547	-0.0327	-0.568	-0.465	-0.194	-0.952	-0.0395	-0.0401	-0.0926
ACCCATG	-0.048	0.163	-0.576	-0.359	0.00575	-1.04	0.216	0.204	0.0137
CAAGTAG	-0.0527	0.032	-0.732	-0.743	0.0587	-1.24	0.152	0.0459	-0.0853
ACGTATG	0.0516	0.0831	-0.219	-0.109	0.101	-0.743	0.233	0.156	0.0684
AGAAGTT	0.062	0.144	-0.0636	-1.47	0.0638	-0.0357	-0.334	-0.0145	0.042
TACACCC	0.0121	-0.0895	-0.00665	-1.33	0.103	-0.122	-0.197	-0.053	0.0403
AGTAGCG	0.0793	0.0306	-0.799	0.444	0.0211	-0.662	0.14	0.0654	-0.178
CTCGGAA	-0.0295	0.0366	0.33	0.916	-0.0393	0.977	-0.0496	0.0318	-0.041
TTACTCA	-0.002	0.0425	0.0288	-1.77	-0.0585	0.0677	-0.165	0.103	0.0963
CTTCGCA	0.0758	0.0664	-0.212	-0.667	0.0658	-0.844	0.0249	0.0207	0.0165
CAAAAAC	-0.175	-0.0344	-0.248	-0.569	0.00919	-0.875	0.0292	-0.18	-0.0971
TAGCGTG	-0.11	0.00765	-0.318	0.0314	-0.072	0.149	0.0558	-0.0729	-0.0663
GCACCCC	-0.116	0.134	0.118	0.397	0.0182	0.301	-0.365	-0.0117	0.104
GTTAAAA	0.00996	0.13	0.313	0.844	0.00289	1.79	0.0601	-0.0413	0.0422
AAACGCT	-0.0542	-0.0238	-0.961	-2.34	0.00864	-1.1	-0.121	-0.0189	-0.358
CCAATAG	0.141	0.187	-0.489	-0.076	0.148	-1.09	0.402	0.285	0.0518
